According to ChEMBL document CHEMBL1201862, “PubChem BioAssay data set” (2004):
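Growth conditions: 96-well plates. Treatment: test compound, 48 hours, 5 concentrations. Analysis: linear interpolation between bracketing concentrations; unreached endpoints set to highest concentration. GI50 is the concentration that inhibits growth by half.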 Calls of active or inactive are those of the source. Rule as the data show it: active = GI50 up to about 1.1 µM and inactive = higher. Peptide text beside a SMILES is read from it.

System: NCI-H322M
Assay: DTP human tumour cell line panel, 48 h

Compound	GI50
CC1OC(OC2C(OC(=O)[C@]34CCC(C)(C)C[C@H]3C3=CC[C@@H]5[C@@]6(C)CC[C@H](OC7OC(C(=O)O)C(O)C(O)C7O)C(C)(C)[C@@H]6CC[C@@]5(C)[C@]3(C)C[C@H]4O)OCC(O)C2O)C(O)C(O)C1OC1OCC(OC2OCC(O)C(O)C2O)C(O)C1O (stereo not given in full)	inactive: 2.74 µM
CC(=O)Oc1ccc(-c2c(OC(C)=O)c(OC(C)=O)c(-c3ccc(OC(C)=O)c(OC(C)=O)c3)c(OC(C)=O)c2OC(C)=O)cc1	inactive: 18.9 µM
Cc1cccc(O)c1-c1nnc(CCCCCCCCc2nnc(-c3c(C)cccc3O)n2N)n1N	inactive: > 100 µM
CCCCNC1=C2C(=O)NN=C2CO1	inactive: > 100 µM
CC(C)C1=CC23CCC4C(C)(C(=O)O)CCCC4(C)C2CC1C1C(=O)N(c2cccc(N4C(=O)C5C6CC7C8(C)CCCC(C)(C(=O)O)C8CCC7(C=C6C(C)C)C5C4=O)c2)C(=O)C13 (stereo not given)	inactive: 1.93 µM
Cc1c(CCCl)c(Cl)n2c(nc3ccccc32)c1C#N	inactive: 1.46 µM
Cc1nn(-c2ccccc2)c(C)c1/C=N/N=C1\S/C(=C\c2ccc(Cl)cc2)C(=O)N1c1ccccc1	inactive: 45.5 µM
CSc1ccc2c(c1)c(CCN)c(C)n2Cc1ccccc1Cl	inactive: 1.6 µM
CSC1=N/C(=C\c2ccc(C)cc2)C(=O)N1CN1CCCCC1	inactive: > 100 µM
Cc1ccc2c(O)cc(-c3sc4ccccc4c3C)nc2n1	inactive: 31.2 µM
CSC1=N/C(=C\c2cccs2)C(=O)N1CN1CCCCC1	inactive: > 100 µM
COC(=O)C1=CC2C(=O)OC1C1C(=O)NC(=O)C21 (stereo not given)	inactive: > 100 µM
O=C(CCCn1ccnc1[N+](=O)[O-])NCCn1cnc([N+](=O)[O-])c1	inactive: > 100 µM
COc1ccc([C@H]2C=C(c3cc(F)c(Cl)cc3Cl)N=c3s/c(=C\c4ccc(-c5ccc(Cl)cc5Cl)o4)c(=O)n32)cc1	inactive: > 100 µM
COC(=O)C12C3C4C1C1C2C3C41C(=O)NC(C)(C)CC(=O)O (stereo not given)	inactive: > 100 µM
COc1ccc(NC(=O)C/C(C)=N\N=C(N)N)c([N+](=O)[O-])c1	inactive: > 100 µM
O=C1NC(=O)C(COCc2ccccc2)C2=C1SCCC2 (stereo not given)	inactive: > 100 µM
N#C[BH2-][n+]1cn(C2CC(OP(=O)(O)OCC3OC(n4cnc5c(N)ncnc54)CC3O)C(CO)O2)c2nc(N)[nH]c(=O)c21 (stereo not given)	inactive: > 100 µM
O=C1CC2(CCCc3sccc32)C(=O)N1 (stereo not given)	inactive: > 100 µM
CC1(C)COC(c2cccc(C3=NC(C)(C)CO3)c2)=N1	inactive: > 100 µM

Compound	GI50
COc1cc(CCc2ccc(OCCN(C)C)cc2)cc(OC)c1OC	inactive: > 100 µM
O=C1c2ccccc2/C=C\C(c2ccccc2)=N/N1c1ccccc1Cl	inactive: 20.7 µM
O=[N+]([O-])c1ccc(S(=O)(=O)Cc2ccccc2)c2nonc12	inactive: 31.6 µM
CC/C(Cl)=N\OC(=O)Nc1ccc(F)c(Cl)c1	inactive: 17.5 µM
CC(=O)OCC1OC(N2C(C)=C(C(C)=O)C(c3ccco3)C(C#N)=C2S)C(OC(C)=O)C(OC(C)=O)C1OC(C)=O (stereo not given)	inactive: > 100 µM
CCOC(=O)C1=C(Nc2ccc(Cl)c(Cl)c2)OC/C1=N\NC(=O)Cc1ccccc1	inactive: > 100 µM
CCCCCCCCCC[C@H](O)[C@H]1CC[C@@H]([C@@H](O)CC[C@H](O)[C@@H]2CCC(CCCCCCC[C@@H](O)CC3=C[C@H](C)OC3=O)O2)O1 (stereo not given in full)	inactive: 2.41 µM
C=C1CCC([N+](=O)[O-])[C@](C)(N=O)CC[C@@H]2C1CC2(C)C (stereo not given in full)	inactive: 32.1 µM
O=c1ccc2ccc(CBr)cc2o1	inactive: 14.5 µM
Cc1cc2nc3c(C#N)c4c(c(Nc5ccc(F)cc5)n3c2cc1C)CCC4	inactive: > 100 µM
COc1ccc(/C=C/C=C2C(=O)NC(=S)NC2=O)cc1	inactive: 18.8 µM
CCC(C)C(NC(=O)C(NC(=O)C(CC(N)=O)NC(=O)CN)C(C)O)C(=O)NC(C(=O)NC(C)C(=O)NC(C(=O)NC(CCC(=O)O)C(=O)NC(CC(C)C)C(=O)NC(CC(=O)O)C(=O)NC(C(=O)NC(Cc1ccc(O)cc1)C(=O)N1CCCC1C(=O)O)C(C)O)C(C)C)C(C)C (stereo not given) (H-GNTIVAVELDTYP-OH; configuration not given here)	inactive: > 50 µM
COc1ccccc1NC(=S)N/N=C/c1ccccn1	active: 0.392 µM
C/C(CC(=O)Nc1ccc(Cl)c(Cl)c1)=N/NC(=O)C[n+]1ccccc1	inactive: > 100 µM
CCc1n[nH]c(=O)n1-n1c(C)ccc1C	inactive: > 100 µM
N#Cc1sc2c(c1OC(=O)c1ccc(C(F)(F)F)cc1)c(=O)n(-c1ccccc1)c(=S)n2-c1ccccc1	inactive: 39.7 µM
CC[P+](C#Cc1ccccc1)(c1ccccc1)c1ccccc1	inactive: 3.48 µM
O=C(Oc1cc(=O)c(OC(=O)c2ccccc2)co1)c1ccccc1	inactive: 64.3 µM
O=c1c(-c2nc3ccccc3c3ccccc3c2=O)nc2ccccc2c2ccccc12	inactive: > 100 µM
O=C(/C=C\c1cccc2ccccc12)c1ccc(Br)cc1	inactive: 47.6 µM

Compound	GI50
CCOC(=O)CC(=O)Nc1cccc2nc[nH]c12	inactive: > 100 µM
CC(=O)N1CC2Nc3ccccc3C2CC1CO (stereo not given)	inactive: > 100 µM
COc1cc(C(=O)N[C@H]2CCc3cc(OC)c(OC)c(OC)c3-c3ccc(SC)c(=O)cc32)cc(OC)c1OC	active: 0.01 µM
CC(=O)c1c2c(cc3c1CC1(Cc4cc5c(cc4C1)CCC5)C3)CCC2	inactive: > 100 µM
O=C1C=CC(=C(c2ccc(O)cc2)c2ccc(O)cc2)C=C1 [AURIN]	inactive: 15.4 µM
CCN(CC)CCOCCn1c2c(c3ccccc31)CCCC2	inactive: 40 µM
CCOP(=O)(OCC)/C(=C\n1c(=S)[nH]c2cc(C)ccc21)C(=O)OC	inactive: > 100 µM
OC1(c2ccc(Cl)cc2)c2ccccc2C2=NCc3ccccc3CN21 (stereo not given)	inactive: 8.24 µM
C[n+]1c2ccccc2c(C(=O)NC(CCCNC(=N)N)C(=O)O)c2ccccc21 (stereo not given)	inactive: > 100 µM
O=C1Nc2ccc(S(=O)(=O)NCCO)cc2/C1=C1/Nc2ccccc2C1=O	inactive: 6.52 µM
COc1cc(/C=C/C(=O)OC[C@]23O[C@H]2[C@@H](OC2OC(C)C(O)C(O)C2O)C2C=CO[C@@H](OC4OC(CO)C(O)C(O)C4O)C23)ccc1O (stereo not given in full)	inactive: > 100 µM
Fc1cc(-c2cc(-c3ccccc3)n[nH]2)c(Cl)cc1Cl	inactive: > 100 µM
C=CCNC(=O)NC(=O)CSC1=NC(=O)C2(NN1)c1ccccc1-c1ccccc12	inactive: > 10 µM
Cc1ccc(S(=O)(=O)N/N=c2/sc3ccccc3n2C)cc1	inactive: > 100 µM
C=C(C)COc1cc(/N=C(/S)OC(C)C)ccc1Cl	inactive: 15.9 µM
CC(C)c1cc(C(C)C)c(S(=O)(=O)N=[N+]=[N-])c(C(C)C)c1	inactive: > 100 µM
Nc1ccccc1/N=C/c1cc2cc([N+](=O)[O-])ccc2s1	inactive: 18.5 µM
O=C1C=CC(=O)[C@H]2C3C=CC(C4C3C3(Cl)C(Cl)=C(Cl)[C@]4(Cl)C3(Cl)Cl)[C@@H]12 (stereo not given in full)	inactive: 14.1 µM
NC(=O)c1c2c(n3ccccc13)C(=O)c1ccccc1C2=O	inactive: 76.7 µM
N#Cc1c(NC(=O)CCC(=O)O)ccc2ccccc12	inactive: > 100 µM
